The values that follow come from PMC13083723 (Patterns, 2026).

About 190 (3.5%) of roughly 5,400 compounds showed an effect of 50% or more. The list shows a part of the results.

For this assay, the system named is Vero-E6. Briefly: primary screen, phospholipidosis by LipidTOX staining; higher = more effect of the substance. Conditions: 10 µM. Here is the method: To measure drug-induced PLD in Vero-E6 cells, we used the HCS LipidTOX Red Phospholipidosis Detection Reagent (Invitrogen, #H34351), which is non-toxic to cell growth and remains well retained after aldehyde fixation. In this setup, compounds (at 10 μM concentration) and controls (amiodarone: 10 μM concentration; DMSO: 0.1 v/v %) were added to clear-bottom, 384-well plates (PhenoPlate 384-well, black, optically clear flat bottom, tissue-culture treated, Revvity #6057302) using the Echo Liquid Handler (Labcyte).
On to `CC(=O)[C@H]1CCC2C3CC=C4C[C@@H](O)CC[C@]4(C)C3CC[C@@]21C` (some centres unmarked), for which the result_ITMP was -3.36%. As for `Cc1cc(C)c(/C=C2\C(=O)Nc3ccccc32)[nH]1`, the figure is -1.96%; as for `CN/C(=C\[N+](=O)[O-])NCCSCc1csc(CN(C)C)n1`, -10.8%; as for `CC(C)c1cc(-c2ccc(F)c3ccccc23)nc(N)n1`, -4.48%. Turning to `COC(=O)Nc1nc2ccc(S(=O)c3ccccc3)cc2[nH]1` (centres unmarked), the result_ITMP is 10.2%. On to `N#Cc1cc(-c2n[nH]c(-c3ccncc3)n2)ccn1`, for which the result_ITMP is -1.96%. In the case of `CC(=O)N(OCc1ccccc1)[C@@H]1c2cc(C#N)ccc2OC(C)(C)[C@H]1O`, the result_ITMP is listed as -8.99%. On to `CCn1ccnc1CC1COc2ccccc2O1` (centres unmarked), for which the result_ITMP is reported as -1.64%.

Take `COc1ccc(S(=O)(=O)N(C(C)=O)c2ccccc2/C=C/c2cc[n+]([O-])cc2)cc1`: the result_ITMP was 12.8%. For `Cc1c(F)cc(C(=O)NC2CC2)cc1-c1ccc(C(=O)NCC(C)(C)C)cn1`, the result_ITMP worked out at 0.26%.

With `O=C(O)[C@@H](c1ccc(OCc2ccc3ccccc3n2)cc1)C1CCCC1`, the result_ITMP is given as -10.2%.

Consider `Cn1cc(C(=O)C(=O)N[C@H]2CN3CCC2CC3)c2ccccc21`, for which the result_ITMP is 4.71%. With `C[C@]12CCC(=O)C=C1CC[C@@H]1[C@@H]2CC[C@@]2(C)[C@H]1CC[C@]2(C)O`, the result_ITMP stood at 0.46%. For `CCCCCCCCCCCCCCCC(=O)O[C@@H]1[C@@H](O)[C@@H](O)[C@@H]([C@H](NC(=O)[C@@H]2C[C@@H](CCC)CN2C)[C@H](C)Cl)O[C@@H]1SC`, the result_ITMP stood at 8.48%.

In the case of `Cc1cc(CC(=O)O)n(C)c1C(=O)c1ccc(Cl)cc1`, the result_ITMP is recorded as -3.4%. Turning to `O=C(O)C1=CCCNC1`, the result_ITMP was 3.24%.

With `COc1cc(C#N)ccc1S(=O)(=O)Nc1ccc2c(c1)cc(C)c(=O)n2C`, the result_ITMP was -3.82%. `CCOC(=O)c1ccc(-c2ccc(OC(=O)N(C)Cc3cccc(-c4ccncc4)c3)cc2)cc1`: the result_ITMP is listed as -1.86%.

As for `CC(=O)Nc1ncc([N+](=O)[O-])s1`, the result_ITMP is given as 1.4%. As for `FC(F)(F)c1ccc(N2CCNCC2)nc1Cl`, the result_ITMP was 29.2%. The value for `CCC1(c2ccc(N)cc2)CCC(=O)NC1=O` (centres unmarked) was -3.57%; that for `Nc1nccc2c1ncn2[C@@H]1O[C@H](CO)C(O)C1O` (some centres unmarked) was 0.15%.

For `Nc1ccc2cc3ccc(N)cc3nc2c1`, the result_ITMP is recorded as 15.2%. As to `C#Cc1cccc2c1c(C(=O)c1ccc(Cn3c(C)nc4cnccc43)c(F)c1)cn2C(=O)N(C)C`, the result_ITMP was 0.05%. On to `CC(=O)OCC(=O)[C@@]1(O)CCC2C3CCC4=CC(=O)CC[C@]4(C)[C@@]3(F)[C@@H](O)C[C@@]21C` (some centres unmarked), for which the result_ITMP was -0.98%. For the compound `CC(=O)Nc1cccc(Nc2ncnc(N3CCC(OCc4ccc(OC(F)(F)F)cc4)CC3)n2)c1C`, the result_ITMP was -3.81%. Regarding `O=S1(=O)N[C@H]2CCCN2c2ccccc21`, the result_ITMP is listed as -4.95%. `CNC(=O)c1cnn(-c2nc(N)c3ncn([C@@H]4O[C@H](CO)[C@@H](O)[C@H]4O)c3n2)c1`: the result_ITMP is recorded as 0.96%. `COc1ccc(C2CC(c3c(O)cc(C)oc3=O)=NCCS2)c(OC)c1` (centres unmarked): the result_ITMP is -1.35%. `N#Cc1ccnc(N2C(=O)CC[C@H]2C(=O)N(c2cncc(F)c2)[C@H](C(=O)NC2CC(F)(F)C2)c2ccccc2Cl)c1`: the result_ITMP is -1.1%. Take `CCC(=O)c1c(O)cc(O)cc1O`: the result_ITMP was -6.66%. With `C=CC(=O)Nc1ccc2ncnc(Nc3cccc(Br)c3)c2c1`, the result_ITMP is 20.6%. On to `CC1Cc2ccccc2N1NC(=O)c1ccc(Cl)c(S(N)(=O)=O)c1` (centres unmarked), for which the result_ITMP is reported as -3.24%.

As for `CC(C)(C)[C@]1(O)CCN2C[C@H]3c4ccccc4CCc4cccc(c43)[C@@H]2C1`, the result_ITMP came out at 6.12%. Turning to `O=C(O)c1cc2ccccc2s1`, the result_ITMP was -4.49%. The value for `CCCN1CCC[C@H](c2cccc(O)c2)C1` was 7.69%. As for `CO/N=C(\C(=O)N[C@@H]1C(=O)N2C(C(=O)O)=C(Cn3ccc(=N)n3CCO)CS[C@H]12)c1csc(N)n1`, the figure is -5.46%; as for `COc1cc(/C=C(\C#N)C(N)=O)cc(CSc2nc3ccccc3s2)c1O`, -3.59%; as for `O=C(O)c1ccc(CN2CCC(CN[C@@H]3C[C@H]3c3ccccc3)CC2)cc1`, -1.25%. For `CC(C)c1nnc(-c2ccc(-c3ccccc3)nc2)n1-c1cccc2nonc12`, the result_ITMP is recorded as -2.24%. Consider `CCOCC(O)COc1ccc(NC(=O)CC[S+](C)C)cc1` (centres unmarked), for which the result_ITMP was -1.75%.

Regarding `COc1ccc(Nc2ccn(-c3ccccc3)n2)cc1`, the result_ITMP was -5.34%. The value for `C[C@@H](N)[C@@H](O)c1ccccc1` was -1.41%. Regarding `CN1CCN(CCOc2cc(OC3CCOCC3)c3c(Nc4c(Cl)ccc5c4OCO5)ncnc3c2)CC1`, the result_ITMP is 58.5%. For `C[C@@H](N)c1ccc(C(=O)Nc2ccnc3[nH]ccc23)cc1`, the result_ITMP is -2.05%. As for `CCN(C)C(=O)Oc1cccc([C@H](C)N(C)C)c1`, the result_ITMP came out at 1.78%. For `Nc1ccc(S(=O)(=O)Nc2ccnn2-c2ccccc2)cc1`, the result_ITMP is -1.2%. In the case of `CCO[C@@H](Cc1ccc(OCCn2c(C)ccc2-c2ccc(SC)cc2)cc1)C(=O)O`, the result_ITMP was -1.11%. Take `CC(=O)N[C@H]1[C@H]([C@H](O)[C@H](O)CO)O[C@](O)(C(=O)O)C[C@@H]1O`: the result_ITMP is reported as -2.76%. As to `C[C@@H]1O[C@@]2(CS1)CN1CCC2CC1.C[C@H]1O[C@]2(CS1)CN1CCC2CC1`, the result_ITMP is 15.1%. Turning to `O=C(NCC1CN(c2ccc(N3CCOCC3=O)cc2)C(=O)O1)c1ccc(Cl)s1` (centres unmarked), the result_ITMP is -4.55%.

For `N=C(N)S/C=C\C(=O)O`, the result_ITMP is reported as -8.63%. With `Cc1nnc(NS(=O)(=O)c2ccc(N)cc2)s1`, the result_ITMP is listed as -4.31%. As for `CC(C)C(C(=O)Nc1nccs1)c1ccc(Cl)cc1` (centres unmarked), the figure is -2.18%; as for `COC(=O)N[C@H](C(=O)N1CCC[C@H]1C(=O)Nc1ccc([C@@H]2CC[C@@H](c3ccc(NC(=O)[C@@H]4CCCN4C(=O)[C@@H](NC(=O)OC)C(C)C)cc3)N2c2ccc(C(C)(C)C)cc2)cc1)C(C)C`, 0.51%; as for `NC(=O)CN1C=CCC(C(N)=O)=C1`, -5.03%.

For `COc1cc(NS(C)(=O)=O)ccc1Nc1c2ccccc2nc2ccccc12`, the result_ITMP is given as 19.5%.

As for `CCn1c(N)c(C(=O)NC)c(=O)c2ccc(C#C[C@@](C)(O)COC)nc21`, the result_ITMP is on record as -5.39%. Take `CCN1CCC[C@H]1CNC(=O)c1c(OC)ccc(Br)c1OC`: the result_ITMP is listed as -1.75%.
